At least one peptide structure holds a part that was inferred or is arguable (an end, a ring closure or a residue). Bridge positions count the residues as written; N and C are the ends. Square brackets hold non-standard residues; d marks the D form. Peptide text beside a SMILES is read from it. Trp(7-Me) = Cc1cccc2c(C[C@H](N)C(=O)O)c[nH]c12; 2Nal = N[C@@H](Cc1ccc2ccccc2c1)C(=O)O; AEF = NCCOc1ccc(C[C@H](N)C(=O)O)cc1; Cit = NC(=O)NCCC[C@H](N)C(=O)O; Pen = CC(C)(S)[C@H](N)C(=O)O; αMeK = C[C@](N)(CCCCN)C(=O)O; Aib = CC(C)(N)C(=O)O
Target: IL-23R-expressing DB cells (Homo sapiens, UniProt Q5VWK5)
Test: DB cells IL23R pSTAT3 cell assay (pStat3HTRF)
Assay type: cell-based
Conditions: DB cells stimulated with IL-23 0.5 nM, 30 minutes, phospho-STAT3 in cell lysates; read-out: pStat3 HTRF
From the text: Human ELISA indicates the IL23-IL23R competitive binding assay described below, Rat ELISA indicates the rat IL-23R competitive binding ELISA assay described below, and pStat3HTRF indicates the DB cells IL-23R pSTAT3 cell assay described below. The peptides depicted in Table E1 are cyclized via a disulfide bridge formed between two Pen residues in these peptides. The peptides depicted in Table E2 are cyclized via a thioether bond between the indicated amino acid residues. Table E2 provides an illustrative structure depicting thioether cyclization, which is indicated in the table by the term “cyclo,” with the cyclic region bracketed immediately following the term “cyclo.” For certain peptides, the residue Abu is present where indicated, whereas in other embodiments, e.g., those related to the non-cyclized form, the Abu may be referred to as a hSer(Cl) or homoSer residue. The petpides depicted in Table E3 are cyclized via a disulfide bridge formed between two Pen residues or a thioether bond between Abu and Cys.
IL-23 plays a central role in supporting and maintaining Th17 differentiation in vivo. This process is thought to be mediated primarily through the Signal Transducer and Activator of Transcription 3 (STAT3), with phosphorylation of STAT3 (to yield pSTAT3) leading to upregulation of RORC and pro-inflammatory IL-17. This cell assay examines the levels of pSTAT3 in IL-23R-expressing DB cells when stimulated with IL-23 in the presence of test compounds. Serial dilutions of test peptides and IL-23 (Humanzyme #HZ-1261) at a final concentration of 0.5 nM, were added to each well in a 96 well tissue culture plate (Corning #CLS3894). DB cells (ATCC #CRL-2289), cultured in RPMI-1640 medium (Thermo Scientific #11875093) supplemented with 10% FBS, were added at 5×10E5 cells/well and incubated for 30 minutes at 37° C. in a 5% CO2 humidified incubator. Changes in phospho-STAT3 levels in the cell lysates were detected using the Cisbio HTRF pSTAT3 (Tyr705) Cellular Assay Kit (Cisbio #62AT3PEH), according to manufacturer's Two Plate Assay protocol.

Chain of IL-23R-expressing DB cells (Q5VWK5 24-629 limits assumed): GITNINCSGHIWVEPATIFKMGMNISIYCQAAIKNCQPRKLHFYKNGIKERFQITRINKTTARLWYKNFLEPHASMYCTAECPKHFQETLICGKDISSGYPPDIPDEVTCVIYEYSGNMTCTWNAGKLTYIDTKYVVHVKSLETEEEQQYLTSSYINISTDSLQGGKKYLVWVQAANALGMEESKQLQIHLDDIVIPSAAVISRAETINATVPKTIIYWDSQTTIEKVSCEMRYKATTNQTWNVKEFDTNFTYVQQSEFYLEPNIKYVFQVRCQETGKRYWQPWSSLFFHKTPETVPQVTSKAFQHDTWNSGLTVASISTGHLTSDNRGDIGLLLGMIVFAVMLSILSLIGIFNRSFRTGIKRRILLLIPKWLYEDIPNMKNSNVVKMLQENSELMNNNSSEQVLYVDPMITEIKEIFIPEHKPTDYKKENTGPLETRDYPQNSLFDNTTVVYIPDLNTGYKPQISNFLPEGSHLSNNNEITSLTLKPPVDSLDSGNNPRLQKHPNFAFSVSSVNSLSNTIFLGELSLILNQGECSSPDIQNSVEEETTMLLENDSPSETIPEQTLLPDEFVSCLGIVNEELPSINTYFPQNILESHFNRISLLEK

| SMILES | IC50 |
| --- | --- |
| CC(=O)NCCCC[C@H](NC(=O)[C@](C)(CCCCN)NC(=O)[C@H](Cc1ccc2ccccc2c1)NC(=O)[C@H](Cc1ccc(OCCN)cc1)NC(=O)[C@H]1NC(=O)[C@H](CCC(N)=O)NC(=O)[C@H](Cc2c[nH]c3c(C)cccc23)NC(=O)[C@H]([C@@H](C)O)NC(=O)[C@H](CCC(N)=O)NC(=O)[C@@H](NC(C)=O)C(C)(C)SSC1(C)C)C(=O)N[C@@H](CC(N)=O)C(=O)NCCC(N)=O [compound 237] | 3.39 nM |
| CC(=O)NCCCC[C@@H]1NC(=O)[C@H](Cc2c[nH]c3c(C)cccc23)NC(=O)[C@H]([C@@H](C)O)NC(=O)[C@H](CCCCNC(C)=O)NC(=O)[C@@H](NC(C)=O)C(C)(C)SSC(C)(C)[C@@H](C(=O)N[C@@H](Cc2ccc(OCCN)cc2)C(=O)N[C@@H](Cc2ccc3ccccc3c2)C(=O)N[C@@](C)(CCCCN)C(=O)N[C@@H](CCCCNC(C)=O)C(=O)N[C@@H](CC(N)=O)C(=O)N[C@H](CC(C)C)C(N)=O)NC1=O [compound 330] (Ac-[Pen]K(Ac)T[Trp(7-Me)]K(Ac)[Pen][AEF][2Nal][αMeK]K(Ac)N[dL]-NH2; disulfide 1-6) | 1.38 nM |
| CC(=O)NCCCC[C@H](NC(=O)[C@](C)(CCCCN)NC(=O)[C@H](Cc1ccc2ccccc2c1)NC(=O)[C@H](Cc1ccc(OCCN)cc1)NC(=O)[C@H]1NC(=O)[C@H](CCCNC(N)=O)NC(=O)[C@H](Cc2c[nH]c3c(C)cccc23)NC(=O)[C@H]([C@@H](C)O)NC(=O)[C@H](CC(N)=O)NC(=O)[C@@H](NC(C)=O)C(C)(C)SSC1(C)C)C(=O)N[C@@H](CC(N)=O)C(=O)N[C@H](C(N)=O)[C@@H](C)O [compound 262] (Ac-[Pen]NT[Trp(7-Me)][Cit][Pen][AEF][2Nal][αMeK]K(Ac)NT-NH2; disulfide 1-6) | 0.996 nM |
| CC(=O)NCCCC[C@H](NC(=O)[C@](C)(CC(C)C)NC(=O)[C@H](Cc1ccc2ccccc2c1)NC(=O)[C@H](Cc1ccc(OCCN)cc1)NC(=O)[C@H]1NC(=O)[C@H](CCC(N)=O)NC(=O)[C@H](Cc2c[nH]c3c(C)cccc23)NC(=O)[C@H]([C@@H](C)O)NC(=O)[C@H](CC(N)=O)NC(=O)[C@@H](NC(C)=O)C(C)(C)SSC1(C)C)C(=O)N[C@H](CO)C(=O)NCCC(N)=O [compound 222] | 5.02 nM |
| CC(=O)NCCCC[C@H](NC(=O)[C@](C)(CCCCN)NC(=O)[C@H](Cc1ccc2ccccc2c1)NC(=O)[C@H](Cc1ccc(OCCN)cc1)NC(=O)[C@H]1NC(=O)[C@H](CCCNC(N)=O)NC(=O)[C@H](Cc2c[nH]c3c(C)cccc23)NC(=O)[C@H]([C@@H](C)O)NC(=O)[C@H](CC(N)=O)NC(=O)[C@@H](NC(C)=O)C(C)(C)SSC1(C)C)C(=O)N[C@@H](CC(N)=O)C(=O)NC(C)(C)C(=O)N[C@@H](CCCNC(=N)N)C(N)=O [compound 343] (Ac-[Pen]NT[Trp(7-Me)][Cit][Pen][AEF][2Nal][αMeK]K(Ac)N[Aib]R-NH2; disulfide 1-6) | 1.43 nM |
| CC(=O)N[C@H]1CCSC[C@@H](C(=O)N[C@@H](Cc2ccc(OCCN)cc2)C(=O)N[C@@H](Cc2ccc3ccccc3c2)C(=O)NC2(C(=O)N[C@@H](CCC(=O)O)C(=O)N[C@@H](CC(N)=O)C(=O)NCCC(N)=O)CCOCC2)NC(=O)[C@H](CCC(N)=O)NC(=O)[C@H](Cc2c[nH]c3c(C)cccc23)NC(=O)[C@H]([C@@H](C)O)NC(=O)[C@H](CCC(N)=O)NC1=O [compound 204] | 1.75 nM |
| CC(=O)NCCCC[C@H](NC(=O)[C@](C)(CCCCN)NC(=O)[C@H](Cc1ccc2ccccc2c1)NC(=O)[C@H](Cc1ccc(OCCN)cc1)NC(=O)[C@H]1NC(=O)[C@H](CCCCNC(=O)CCN)NC(=O)[C@H](Cc2c[nH]c3c(C)cccc23)NC(=O)[C@H]([C@@H](C)O)NC(=O)[C@H](CC(N)=O)NC(=O)[C@@H](NC(C)=O)C(C)(C)SSC1(C)C)C(=O)N[C@@H](CC(N)=O)C(=O)N[C@H](CC(C)C)C(N)=O [compound 321] | 1.04 nM |
